{
  "source": "patent US9650358B2",
  "about": "(priority 2013, dated 2017)",
  "data": [
    {"test_system": "H929 cells", "experiment": "cells", "conditions": "Homo sapiens, NCI-H929, 24 h, read-out: H929 viability EC50", "units": {"EC50": "nM"}, "values": [
      {"smiles": "O=C(Nc1cc(-c2ccc3ncn(CC4CCOCC4)c3c2)c(Cl)cn1)[C@H]1CCC[C@@H](C(=O)N2CCC[C@H]2CO)C1", "note": "(mixture of isomers) [Example 335, (cis)-N-{5-chloro-4-[1-(tetrahydro-2H-pyran-4-ylmethyl)-1H-benzimidazol-6-yl]pyridin-2-yl}-3-{[(2S)-2-(hydroxymethyl)pyrrolidin-1-yl]carbonyl}cyclohexanecarboxamide]", "EC50": 640},
      {"smiles": "OCC(O)CN[C@H]1CC[C@H](Nc2cc(-c3ccc4ncn(Cc5cccc(F)c5)c4c3)c(Cl)cn2)CC1", "note": "(relative stereo) [Example 236, 3-{[trans-4-({5-chloro-4-[1-(3-fluorobenzyl)-1H-benzimidazol-6-yl]pyridin-2-yl}amino)cyclohexyl]amino}propane-1,2-diol]", "EC50": 320},
      {"smiles": "CC(C)(CN[C@H]1CC[C@H](Nc2cc(-c3ccc4ncn(Cc5cccc(F)c5)c4c3)c(Cl)cn2)CC1)C[S+]([O-])c1ccccc1", "note": "(relative stereo) [Example 241, trans-N-{5-chloro-4-[1-(3-fluorobenzyl)-1H-benzimidazol-6-yl]pyridin-2-yl}-N′-[2,2-dimethyl-3-(phenylsulfinyl)propyl]cyclohexane-1,4-diamine]", "EC50": 190},
      {"smiles": "COC(C)CN[C@H]1CC[C@H](Nc2cc(-c3ccc4ncn(Cc5cccc(F)c5)c4c3)c(Cl)cn2)CC1", "note": "(relative stereo) [Example 242, trans-N-{5-chloro-4-[1-(3-fluorobenzyl)-1H-benzimidazol-6-yl]pyridin-2-yl}-N′-(2-methoxypropyl)cyclohexane-1,4-diamine]", "EC50": 210},
      {"smiles": "CC(CN[C@H]1CC[C@H](Nc2cc(-c3ccc4ncn(Cc5cccc(F)c5)c4c3)c(Cl)cn2)CC1)OC1CCCCC1", "note": "(relative stereo) [Example 243, trans-N-{5-chloro-4-[1-(3-fluorobenzyl)-1H-benzimidazol-6-yl]pyridin-2-yl}-N′-[2-(cyclohexyloxy)propyl]cyclohexane-1,4-diamine]", "EC50": 470},
      {"smiles": "CC1(C)CCC(CN[C@H]2CC[C@H](Nc3cc(-c4ccc5ncn(Cc6cccc(F)c6)c5c4)c(Cl)cn3)CC2)O1", "note": "(relative stereo) [Example 244, trans-N-{5-chloro-4-[1-(3-fluorobenzyl)-1H-benzimidazol-6-yl]pyridin-2-yl}-N′-[(5,5-dimethyltetrahydrofuran-2-yl)methyl]cyclohexane-1,4-diamine]", "EC50": 290},
      {"smiles": "CC(CO)N[C@H]1CC[C@H](Nc2cc(-c3ccc4ncn(Cc5cccc(F)c5)c4c3)c(Cl)cn2)CC1", "note": "(relative stereo) [Example 246, 2-{[trans-4-({5-chloro-4-[1-(3-fluorobenzyl)-1H-benzimidazol-6-yl]pyridin-2-yl}amino)cyclohexyl]amino}propan-1-ol]", "EC50": 140},
      {"smiles": "COC(=O)[C@H]1CCC[C@@H](C(=O)Nc2cc(-c3ccc4ncn(CC5CCOCC5)c4c3)c(Cl)cn2)C1", "note": "(relative stereo) [Example 331, methyl (cis)-3-({5-chloro-4-[1-(tetrahydro-2H-pyran-4-ylmethyl)-1H-benzimidazol-6-yl]pyridin-2-yl}carbamoyl)cyclohexanecarboxylate]", "EC50": 180},
      {"smiles": "O=C(O)[C@H]1CCC[C@@H](C(=O)Nc2cc(-c3ccc4ncn(CC5CCOCC5)c4c3)c(Cl)cn2)C1", "note": "(relative stereo) [Example 332, (cis)-3-({5-chloro-4-[1-(tetrahydro-2H-pyran-4-ylmethyl)-1H-benzimidazol-6-yl]pyridin-2-yl}carbamoyl)cyclohexanecarboxylic acid]", "EC50": "> 10000"},
      {"smiles": "O=C(Nc1cc(-c2ccc3ncn(CC4CCOCC4)c3c2)c(Cl)cn1)[C@H]1CCC[C@@H](C(=O)N2CC(O)C2)C1", "note": "(relative stereo) [Example 333, (cis)-N-{5-chloro-4-[1-(tetrahydro-2H-pyran-4-ylmethyl)-1H-benzimidazol-6-yl]pyridin-2-yl}-3-[(3-hydroxyazetidin-1-yl)carbonyl]cyclohexanecarboxamide]", "EC50": 4800},
      {"smiles": "O=C(Nc1cc(-c2ccc3c(c2)NCC3)c(Cl)cn1)[C@@H]1CCCNC1", "note": "[Example 2, (3R)—N-[5-chloro-4-(2,3-dihydro-1H-indol-6-yl)pyridin-2-yl]piperidine-3-carboxamide]", "EC50": 6400},
      {"smiles": "Cn1cnc2ccc(-c3cc(NC(=O)[C@@H]4CCCNC4)ncc3Cl)cc21", "note": "[Example 3, (3R)—N-[5-chloro-4-(1-methyl-1H-benzimidazol-6-yl)pyridin-2-yl]piperidine-3-carboxamide]", "EC50": 3000},
      {"smiles": "O=C(Nc1cc(-c2ccc3c(c2)N(CC2CCOCC2)CC3)c(Cl)cn1)[C@@H]1CCCNC1", "note": "[Example 4, (3R)—N-{5-chloro-4-[1-(tetrahydro-2H-pyran-4-ylmethyl)-2,3-dihydro-1H-indol-6-yl]pyridin-2-yl}piperidine-3-carboxamide]", "EC50": 2700},
      {"smiles": "O=C(Nc1cc(-c2ccc3ccn(Cc4cccc(F)c4)c3c2)c(Cl)cn1)[C@@H]1CCCNC1", "note": "[Example 7, (3R)—N-{5-chloro-4-[1-(3-fluorobenzyl)-1H-indol-6-yl]pyridin-2-yl}piperidine-3-carboxamide]", "EC50": 680},
      {"smiles": "O[C@H]1CC[C@H](Nc2cc(-c3ccc4c(c3)N(Cc3cccc(F)c3)CC4)c(Cl)cn2)CC1", "note": "[Example 10, trans-4-({5-chloro-4-[1-(3-fluorobenzyl)-2,3-dihydro-1H-indol-6-yl]pyridin-2-yl}amino)cyclohexanol]", "EC50": 3600},
      {"smiles": "O=C(Nc1cc(-c2ccc3ncn(CCN4CCOCC4)c3c2)c(Cl)cn1)[C@@H]1CCCNC1", "note": "[Example 14, (3R)—N-(5-chloro-4-{1-[2-(morpholin-4-yl)ethyl]-1H-benzimidazol-6-yl}pyridin-2-yl)piperidine-3-carboxamide]", "EC50": 750},
      {"smiles": "CC(C)(O)CCn1cnc2ccc(-c3cc(NC(=O)[C@@H]4CCCNC4)ncc3Cl)cc21", "note": "[Example 15, (3R)—N-{5-chloro-4-[1-(3-hydroxy-3-methylbutyl)-1H-benzimidazol-6-yl]pyridin-2-yl}piperidine-3-carboxamide]", "EC50": 730},
      {"smiles": "NS(=O)(=O)CCn1cnc2ccc(-c3cc(NC(=O)[C@@H]4CCCNC4)ncc3Cl)cc21", "note": "[Example 19, (3R)—N-{5-chloro-4-[1-(2-sulfamoylethyl)-1H-benzimidazol-6-yl]pyridin-2-yl}piperidine-3-carboxamide]", "EC50": 1450},
      {"smiles": "O=C(Nc1cc(-c2ccc3ncn(CC4CCS(=O)(=O)C4)c3c2)c(Cl)cn1)[C@@H]1CCCNC1", "note": "(stereo partly drawn) [Example 20, (3R)—N-(5-chloro-4-{1-[(1,1-dioxidotetrahydrothiophen-3-yl)methyl]-1H-benzimidazol-6-yl}pyridin-2-yl)piperidine-3-carboxamide]", "EC50": 680},
      {"smiles": "O=C(Nc1cc(-c2ccc3ncn(Cc4cccnc4)c3c2)c(Cl)cn1)[C@@H]1CCCNC1", "note": "[Example 22, (3R)—N-{5-chloro-4-[1-(pyridin-3-ylmethyl)-1H-benzimidazol-6-yl]pyridin-2-yl}piperidine-3-carboxamide]", "EC50": 390},
      {"smiles": "O=C(Nc1cc(-c2ccc3ncn(CC4CCS(=O)(=O)CC4)c3c2)c(Cl)cn1)[C@@H]1CCCNC1", "note": "[Example 23, (3R)—N-(5-chloro-4-{1-[(1,1-dioxidotetrahydro-2H-thiopyran-4-yl)methyl]-1H-benzimidazol-6-yl}pyridin-2-yl)piperidine-3-carboxamide]", "EC50": 690},
      {"smiles": "Cc1nnc(Cn2cnc3ccc(-c4cc(NC(=O)[C@@H]5CCCNC5)ncc4Cl)cc32)[nH]1", "note": "[Example 24, (3R)—N-(5-chloro-4-{1-[(5-methyl-4H-1,2,4-triazol-3-yl)methyl]-1H-benzimidazol-6-yl}pyridin-2-yl)piperidine-3-carboxamide]", "EC50": "> 10000"},
      {"smiles": "CNC(=O)N[C@H]1CC[C@H](Nc2cc(-c3ccc4ncn(Cc5cccc(F)c5)c4c3)c(Cl)cn2)CC1", "note": "[Example 27, 1-[trans-4-({5-chloro-4-[1-(3-fluorobenzyl)-1H-benzimidazol-6-yl]pyridin-2-yl}amino)cyclohexyl]-3-methylurea]", "EC50": 340},
      {"smiles": "N#Cc1cn(Cc2ccccc2)c2cc(-c3cc(NC(=O)[C@@H]4CCCNC4)ncc3Cl)ccc12", "note": "[Example 29, (3R)—N-[4-(1-benzyl-3-cyano-1H-indol-6-yl)-5-chloropyridin-2-yl]piperidine-3-carboxamide]", "EC50": 1000},
      {"smiles": "O=C(Nc1cc(-c2cnc3ccn(Cc4cccc(F)c4)c3c2)c(Cl)cn1)[C@@H]1CCCNC1", "note": "[Example 33, (3R)—N-{5-chloro-4-[1-(3-fluorobenzyl)-1H-pyrrolo[3,2-b]pyridin-6-yl]pyridin-2-yl}piperidine-3-carboxamide]", "EC50": 430},
      {"smiles": "Fc1cccc(Cn2cnc3ccc(-c4cc(NCCNc5cccnc5)ncc4Cl)cc32)c1", "note": "[Example 34, N-{5-chloro-4-[1-(3-fluorobenzyl)-1H-benzimidazol-6-yl]pyridin-2-yl}-N′-(pyridin-3-yl)ethane-1,2-diamine]", "EC50": 1100},
      {"smiles": "Cn1cc(N2CCCC(Nc3cc(-c4ccc5ncn(Cc6cccc(F)c6)c5c4)c(Cl)cn3)C2)cn1", "note": "(centres unmarked) [Example 39, 5-chloro-4-[1-(3-fluorobenzyl)-1H-benzimidazol-6-yl]-N-[1-(1-methyl-1H-pyrazol-4-yl)piperidin-3-yl]pyridin-2-amine]", "EC50": 750},
      {"smiles": "CCN1CCC(CCNc2cc(-c3ccc4ncn(Cc5cccc(F)c5)c4c3)c(Cl)cn2)CC1", "note": "[Example 41, 5-chloro-N-[2-(1-ethylpiperidin-4-yl)ethyl]-4-[1-(3-fluorobenzyl)-1H-benzimidazol-6-yl]pyridin-2-amine]", "EC50": 690},
      {"smiles": "Fc1cccc(Cn2cnc3ccc(-c4cc(NCCNc5ccncc5)ncc4Cl)cc32)c1", "note": "[Example 43, N-{5-chloro-4-[1-(3-fluorobenzyl)-1H-benzimidazol-6-yl]pyridin-2-yl}-N′-(pyridin-4-yl)ethane-1,2-diamine]", "EC50": 1200},
      {"smiles": "Fc1cccc(Cn2cnc3ccc(-c4cc(NCCCNc5ccccc5)ncc4Cl)cc32)c1", "note": "[Example 47, N-{5-chloro-4-[1-(3-fluorobenzyl)-1H-benzimidazol-6-yl]pyridin-2-yl}-N′-phenylpropane-1,3-diamine]", "EC50": 970},
      {"smiles": "CC(CCN)Nc1cc(-c2ccc3ncn(Cc4cccc(F)c4)c3c2)c(Cl)cn1", "note": "(centres unmarked) [Example 48, N^3-{5-chloro-4-[1-(3-fluorobenzyl)-1H-benzimidazol-6-yl]pyridin-2-yl}butane-1,3-diamine]", "EC50": 1300},
      {"smiles": "Nc1cc(-c2ccc3ncn(Cc4cccc(F)c4)c3c2)c(Cl)cn1", "note": "[Example 49, 5-chloro-4-[1-(3-fluorobenzyl)-1H-benzimidazol-6-yl]pyridin-2-amine]", "EC50": 3700}
    ]}
  ]
}
